1 substance from publication PMC4558515, “Exploring the role of MKK7 in excitotoxicity and cerebral ischemia: a novel pharmacological strategy against brain injury” (Cell Death & Disease, 2015) can be followed below.

The test system of assay [1] is thromboembolic occlusion of the MCA in rats. As to the kind of experiment: Thromboembolic ischemia model, infarct volume by TTC staining. The format is in vivo, Sprague–Dawley rats. The conditions noted are these: 11 mg/kg, 30 min before lesion, 24 h post lesion. On the procedure:
Figure 7 GADD45β-I peptide protects against thromboembolic ischemia. Rats were pre-treated with vehicle (a) or GADD45β-I (11 mg/kg, 30 min before lesion) (b) and killed 24 h post lesion. Brains from control (a) and GADD45β−I-treated (b) rats were extracted and colored with TTC staining to show ischemic region. Images 6A–B are TTC-stained representative slices of the two experimental groups (scale bar=1 mm). In addition, we show a full reconstruction of the lesion size (blue shade on gray) obtained with contour analysis through Neurolucida software. (c) Percentage of ischemic volume was measured with Neurolucida software and Cavalieri's geometry Treated animals were compared with untreated animals. Data represent mean±S.D. (Student's t-test **P<0.05, n=3)
All treated rats underwent ICV administration (−1 AP, +2 ML, −3 DV), 30 min before or 6 h post lesion, of GADD45β-I (11 μg/μl) ipsilaterally to the lesion. […] Injection (2 μl volume) was made with a graduate glass pipette through an osmotic pump to minimize side effects.
Male adult Sprague–Dawley rats (Harlan, Lesmo, Italy) weighing 270–350 g were used in this study. […]

Assay [2] relates to cortical neurons (100 μM NMDA-induced excitotoxicity). As to the kind of experiment: LDH assay, neuroprotection against NMDA-induced excitotoxicity. The conditions noted are these: for protection against NMDA insult (LDH): 100 μM NMDA, n=6.
Assay [3] has as its system thromboembolic occlusion of the MCA in rats. As to the kind of experiment: Thromboembolic ischemia model, functional neuroscore. The conditions noted are these: 30 min before ischemia; 24 h after ischemia, versus control group; 5-point scale (Longa). It counts as in vivo, Sprague–Dawley rats. On the procedure:
Part II. Thromboembolic ischemia (n=7). Ischemia was induced by injection of autologous blood clots in suspension into the internal carotid artery (ICA), as described by Busch et al.[51] In order to prepare blood clots for embolism, femoral arterial blood from a donor rat was collected into a 20-cm long PE-50 catheter and retained for 2 h at room temperature, and subsequently at 4 °C for 22 h to allow clot formation to go to completion. Clots were pushed out of the catheter with a saline-filled syringe, rinsed several times in a Petri dish containing phosphate-buffered solution (PBS, pH 7.4), in order to remove blood cells and obtain a white clot, then inspected under the microscope to select fibrin-rich fragments. These fragments were cut into 2-mm-long pieces and transferred into a solution containing 1 mg/ml albumin in PBS, to allow clot retraction. Approximately 2 h later, 20 fibrin-rich fragments were drawn up in the albumin solution in 1-m-long PE50 catheter, taking care to maintain ~3 cm distance between clots in order to keep them apart, and all embolized into MCA origin.
After a longitudinal incision of 2 cm in length in the midline of the ventral cervical skin, left CCA, ICA and external carotid artery (ECA) were carefully dissected and exposed, avoiding any damage to the adjacent vagus nerve. […]

Consider “TAT-spacer-GADD45β60–86: cell-permeable MKK7 inhibitor peptide with spacer between TAT and GADD45β residues 60–86”, for which, in assay [1], the “reduction of infarcted volume” value was determined as 50%. In addition, the “percentage of ischemic lesion on the whole brain volume” value in assay [1] (mean±S.D., n=3, control 18.88±4.38% (n=4)) is recorded as 9.47±1.96%. For the same substance, the “protection against NMDA insult (LDH)” value in assay [2] (1 μM peptide added 30 min before NMDA, 6 h) is listed as 53%; in assay [2] (2.5 μM peptide added 30 min before NMDA, 6 h), 64%; in assay [2] (5 μM peptide added 30 min before NMDA, 12 h), 56%. The “neuroprotective effect against excitotoxicity compared with TAT-GADD45β69–86, in words” value in assay [2] (in vitro) is reported as “more potent neuroprotective effect against excitotoxicity”. For the same substance, the “functional neuroscore, in words” value in assay [3] is “significant improvements of the functional neuroscore”.
